In the supplement of paper PMC8728848:
The other results are listed elsewhere or left out.

Tests used:
Test in all cases: glycan array binding signal (z-score within array); higher = stronger binding
Conditions in all cases: glycan notation: IUPAC condensed, linker removed
[1] = target: Neu5Ac(a2-6)Gal(b1-3)GlcNAc(b1-3)[Gal(b1-4)GlcNAc(b1-6)]Gal(b1-4)Glc
Outline: (§1)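 From the Consortium for Functional Glycomics database, 3228 arrays were curated, keeping only those whose protein sequence was available. Binding is given as a within-array Z-score averaged across arrays sharing a protein sequence and across linkers. Negative Z-scores can be read as non-binding.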

Neu5Ac(a2-6)Gal(b1-4)Glc = target: Neu5Ac(a2-6)Gal(b1-4)Glc
Outline: as §1

[2] = target: Neu5Ac(a2-6)Gal(b1-4)GlcNAc
Outline: as §1

[3] = target: Neu5Ac(a2-6)Gal(b1-4)GlcNAc(b1-2)Man
Outline: as §1

[4] = target: Neu5Ac(a2-6)Gal(b1-4)GlcNAc(b1-2)Man(a1-3)Man(b1-4)GlcNAc(b1-4)GlcNAc
Outline: as §1

[5] = target: Neu5Ac(a2-6)Gal(b1-4)GlcNAc(b1-2)Man(a1-3)[Gal(b1-4)GlcNAc(b1-2)Man(a1-6)]Man(b1-4)GlcNAc(b1-4)GlcNAc
Outline: as §1

[6] = target: Neu5Ac(a2-6)Gal(b1-4)GlcNAc(b1-2)Man(a1-3)[GlcNAc(b1-2)Man(a1-6)]Man(b1-4)GlcNAc(b1-4)GlcNAc
Outline: as §1

[7] = target: Neu5Ac(a2-6)Gal(b1-4)GlcNAc(b1-2)Man(a1-3)[GlcNAc(b1-4)][Neu5Ac(a2-6)Gal(b1-4)GlcNAc(b1-2)Man(a1-6)]Man(b1-4)GlcNAc(b1-4)GlcNAc
Outline: as §1

[8] = target: Neu5Ac(a2-6)Gal(b1-4)GlcNAc(b1-2)Man(a1-3)[Man(a1-6)]Man(b1-4)GlcNAc(b1-4)GlcNAc
Outline: as §1

[9] = target: Neu5Ac(a2-6)Gal(b1-4)GlcNAc(b1-2)Man(a1-3)[Neu5Ac(a2-3)Gal(b1-4)GlcNAc(b1-2)Man(a1-6)]Man(b1-4)GlcNAc(b1-4)GlcNAc
Outline: as §1

[10] = target: Neu5Ac(a2-6)Gal(b1-4)GlcNAc(b1-2)Man(a1-3)[Neu5Ac(a2-6)Gal(b1-4)GlcNAc(b1-2)Man(a1-6)]Man(b1-4)GlcNAc(b1-4)GlcNAc
Outline: as §1

[11] = target: Neu5Ac(a2-6)Gal(b1-4)GlcNAc(b1-2)Man(a1-3)[Neu5Ac(a2-6)Gal(b1-4)GlcNAc(b1-2)Man(a1-6)]Man(b1-4)GlcNAc(b1-4)[Fuc(a1-6)]GlcNAc
Outline: as §1

[12] = target: Neu5Ac(a2-6)Gal(b1-4)GlcNAc(b1-2)Man(a1-6)Man(b1-4)GlcNAc(b1-4)GlcNAc
Outline: as §1

[13] = target: Neu5Ac(a2-6)Gal(b1-4)GlcNAc(b1-2)Man(a1-6)[Gal(b1-4)GlcNAc(b1-2)Man(a1-3)]Man(b1-4)GlcNAc(b1-4)GlcNAc
Outline: as §1

[14] = target: Neu5Ac(a2-6)Gal(b1-4)GlcNAc(b1-2)Man(a1-6)[GlcNAc(b1-2)Man(a1-3)]Man(b1-4)GlcNAc(b1-4)GlcNAc
Outline: as §1

[15] = target: Neu5Ac(a2-6)Gal(b1-4)GlcNAc(b1-2)Man(a1-6)[Man(a1-3)]Man(b1-4)GlcNAc(b1-4)GlcNAc
Outline: as §1

[16] = target: Neu5Ac(a2-6)Gal(b1-4)GlcNAc(b1-2)[Neu5Ac(a2-6)Gal(b1-4)GlcNAc(b1-4)]Man(a1-3)[GlcNAc(b1-4)][Neu5Ac(a2-6)Gal(b1-4)GlcNAc(b1-2)[Neu5Ac(a2-6)Gal(b1-4)GlcNAc(b1-6)]Man(a1-6)]Man(b1-4)GlcNAc(b1-4)GlcNAc
Outline: as §1

[17] = target: Neu5Ac(a2-6)Gal(b1-4)GlcNAc(b1-2)[Neu5Ac(a2-6)Gal(b1-4)GlcNAc(b1-4)]Man(a1-3)[GlcNAc(b1-4)][Neu5Ac(a2-6)Gal(b1-4)GlcNAc(b1-4)Man(a1-6)]Man(b1-4)GlcNAc(b1-4)GlcNAc
Outline: as §1

[18] = target: Neu5Ac(a2-6)Gal(b1-4)GlcNAc(b1-2)[Neu5Ac(a2-6)Gal(b1-4)GlcNAc(b1-6)]Man(a1-6)[Neu5Ac(a2-6)Gal(b1-4)GlcNAc(b1-2)Man(a1-3)][GlcNAc(b1-4)]Man(b1-4)GlcNAc(b1-4)GlcNAc
Outline: as §1

[19] = target: Neu5Ac(a2-6)Gal(b1-4)GlcNAc(b1-3)Gal(b1-3)GlcNAc
Outline: as §1

[20] = target: Neu5Ac(a2-6)Gal(b1-4)GlcNAc(b1-3)Gal(b1-4)GlcNAc
Outline: as §1

[21] = target: Neu5Ac(a2-6)Gal(b1-4)GlcNAc(b1-3)Gal(b1-4)GlcNAc(b1-2)Man(a1-3)[Neu5Ac(a2-6)Gal(b1-4)GlcNAc(b1-3)Gal(b1-4)GlcNAc(b1-2)Man(a1-6)]GalNAc
Outline: as §1

[22] = target: Neu5Ac(a2-6)Gal(b1-4)GlcNAc(b1-3)Gal(b1-4)GlcNAc(b1-3)Gal(b1-4)GlcNAc
Outline: as §1

[23] = target: Neu5Ac(a2-6)Gal(b1-4)GlcNAc(b1-3)Gal(b1-4)GlcNAc(b1-3)Gal(b1-4)GlcNAc(b1-2)Man(a1-3)[Neu5Ac(a2-6)Gal(b1-4)GlcNAc(b1-3)Gal(b1-4)GlcNAc(b1-3)Gal(b1-4)GlcNAc(b1-2)Man(a1-6)]GalNAc
Outline: as §1

[24] = target: Neu5Ac(a2-6)Gal(b1-4)GlcNAc(b1-3)Gal(b1-4)GlcNAc(b1-3)GalNAc
Outline: as §1

[25] = target: Neu5Ac(a2-6)Gal(b1-4)GlcNAc(b1-3)Gal(b1-4)GlcNAc(b1-3)[Neu5Ac(a2-6)Gal(b1-4)GlcNAc(b1-3)Gal(b1-4)GlcNAc(b1-6)]GalNAc
Outline: as §1

[26] = target: Neu5Ac(a2-6)Gal(b1-4)GlcNAc(b1-3)Gal(b1-4)GlcNAc(b1-6)[Gal(b1-3)]GalNAc
Outline: as §1

[27] = target: Neu5Ac(a2-6)Gal(b1-4)GlcNAc(b1-3)Gal(b1-4)[Fuc(a1-3)]GlcNAc(b1-3)Gal(b1-4)[Fuc(a1-3)]GlcNAc
Outline: as §1

[28] = target: Neu5Ac(a2-6)Gal(b1-4)GlcNAc(b1-3)GalNAc
Outline: as §1

[29] = target: Neu5Ac(a2-6)Gal(b1-4)GlcNAc(b1-3)[Neu5Ac(a2-6)Gal(b1-4)GlcNAc(b1-6)]GalNAc
Outline: as §1

[30] = target: Neu5Ac(a2-6)Gal(b1-4)GlcNAc(b1-6)GalNAc
Outline: as §1

[31] = target: Neu5Ac(a2-6)Gal(b1-4)GlcNAc(b1-6)[Gal(b1-3)GlcNAc(b1-3)]Gal(b1-4)Glc
Outline: as §1

[32] = target: Neu5Ac(a2-6)Gal(b1-4)GlcNAc(b1-6)[Gal(b1-3)]GalNAc
Outline: as §1

[33] = target: Neu5Ac(a2-6)Gal(b1-4)GlcNAc6S
Outline: as §1

Neu5Ac(a2-6)GalNAc = target: Neu5Ac(a2-6)GalNAc
Outline: as §1

[34] = target: Neu5Ac(a2-6)GalNAc(b1-4)GlcNAc
Outline: as §1

[35] = target: Neu5Ac(a2-6)GalNAc(b1-4)GlcNAc6S
Outline: as §1

[36] = target: Neu5Ac(a2-6)GlcNAc(b1-4)GlcNAc
Outline: as §1

B1: PX14367B-bvu-516-23-516 (Bacteroides vulgatus) (protein)
chain: LDTIPTTYVDAGSVFGKTGDAEKVLNGGWNYLMETFNSYANPGYGAMLRANDAMGSDVVLNSKYGFRTHNEFSAIYGKGGTNTLSWLLAYRVINDCNGVLDNIDAAEGTQADRNRIKGQALALRGFLYLHLASCYSFAIDKDPDAVCAPIYTQSTDETIAAEGKPASSVSEVYAQSINDLEEALELIPETYVRDAKHKIDNEVVLGILSRACLYARQWEKAKTYSDKLLAKDNYLMTESEYKAGFNSVDNKEWIWGHAQTNDQSNASYQFHYLDTTTKGSYYYSFNVDPYFRDLFEDGDYRKEMLFWATDPGADVESAAYVWMRNSKFRFRDIENQLGDIVLMRVAEIYLINAEAKAHLNDPDAINKLNDLKTARGAKTIHTNLSQQDLLETIWLERRKELWGEGFSLIDIIRNQQTVVRNAYPEGPIDYIYTDENGQTHTLKKKTQGHRFFNFPDKSAFCPNSKYYLYRITDSEELANKNLYKDHPKLSIYTK
**Q.** With B1 as the binder, how does the “glycan array binding signal (z-score)” value [1] read?
**A.** -0.335

**Q.** And the “glycan array binding signal (z-score)” value (Neu5Ac(a2-6)Gal(b1-4)Glc)?
**A.** -0.068

**Q.** And the “glycan array binding signal (z-score)” value [2]?
**A.** -0.274

**Q.** What about the “glycan array binding signal (z-score)” value [3] of the same binder?
**A.** -0.355

**Q.** What about the “glycan array binding signal (z-score)” value [4] of the same binder?
**A.** -0.286

**Q.** What about the “glycan array binding signal (z-score)” value [5] of the same binder?
**A.** -0.151

**Q.** And the “glycan array binding signal (z-score)” value [6]?
**A.** 0.838

**Q.** And the “glycan array binding signal (z-score)” value [7]?
**A.** -0.072

**Q.** What about the “glycan array binding signal (z-score)” value [8] of the same binder?
**A.** -0.058

**Q.** What about the “glycan array binding signal (z-score)” value [9] of the same binder?
**A.** -0.304

**Q.** And the “glycan array binding signal (z-score)” value [10]?
**A.** -0.224

**Q.** What about the “glycan array binding signal (z-score)” value [11] of the same binder?
**A.** -0.238

**Q.** And the “glycan array binding signal (z-score)” value [12]?
**A.** -0.321

**Q.** What about the “glycan array binding signal (z-score)” value [13] of the same binder?
**A.** -0.404

**Q.** And the “glycan array binding signal (z-score)” value [14]?
**A.** -0.35

**Q.** What about the “glycan array binding signal (z-score)” value [15] of the same binder?
**A.** 4.55

**Q.** And the “glycan array binding signal (z-score)” value [16]?
**A.** -0.166

**Q.** What about the “glycan array binding signal (z-score)” value [17] of the same binder?
**A.** -0.246

**Q.** And the “glycan array binding signal (z-score)” value [18]?
**A.** 3.76

**Q.** And the “glycan array binding signal (z-score)” value [19]?
**A.** -0.255

**Q.** And the “glycan array binding signal (z-score)” value [20]?
**A.** -0.21

**Q.** What about the “glycan array binding signal (z-score)” value [21] of the same binder?
**A.** 0.021

**Q.** What about the “glycan array binding signal (z-score)” value [22] of the same binder?
**A.** -0.33

**Q.** And the “glycan array binding signal (z-score)” value [23]?
**A.** 0.119

**Q.** What about the “glycan array binding signal (z-score)” value [24] of the same binder?
**A.** -0.19

**Q.** What about the “glycan array binding signal (z-score)” value [25] of the same binder?
**A.** -0.043

**Q.** What about the “glycan array binding signal (z-score)” value [26] of the same binder?
**A.** 0.683

**Q.** And the “glycan array binding signal (z-score)” value [27]?
**A.** 0.385

**Q.** And the “glycan array binding signal (z-score)” value [28]?
**A.** -0.386

**Q.** And the “glycan array binding signal (z-score)” value [29]?
**A.** 0.372

**Q.** What about the “glycan array binding signal (z-score)” value [30] of the same binder?
**A.** -0.262

**Q.** What about the “glycan array binding signal (z-score)” value [31] of the same binder?
**A.** -0.158

**Q.** What about the “glycan array binding signal (z-score)” value [32] of the same binder?
**A.** -0.186

**Q.** And the “glycan array binding signal (z-score)” value [33]?
**A.** -0.281

**Q.** What about the “glycan array binding signal (z-score)” value (Neu5Ac(a2-6)GalNAc) of the same binder?
**A.** -0.324

**Q.** And the “glycan array binding signal (z-score)” value [34]?
**A.** -0.363

**Q.** And the “glycan array binding signal (z-score)” value [35]?
**A.** -0.208

**Q.** What about the “glycan array binding signal (z-score)” value [36] of the same binder?
**A.** -0.283
